Results as given in the supplement of paper PMC11417369.
Some of the results follow.

What follows are sequences tested on PfAP2-HC AP2 domain (GST-tagged) (assay: gcPBM binding intensity (ln(normalized median fluorescence intensity)); higher = stronger DNA binding).
Summary of the method: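 GST-fused DNA-binding domains of P. falciparum, expressed in E. coli, were applied at about 25 μg on average for 1 h to an Agilent 4 × 180k array of primer-extended double-stranded 36-bp intergenic genomic probes and negative controls. Binding intensity is the highest Masliner-normalised natural-log median intensity across replicate spots of either probe orientation, measured with Alexa488 anti-GST antibody and a 488 nm scan.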

Row | Sequence | gcPBM binding intensity (ln)
1 | AAATGTGTAAATATAATTAGTTTCACAAAACAAATA [GTGCAC_negctrl_site543] | 9.76
2 | TATTTATTATTATGTACACACTATATTAAAACATAA [CACACA_site4549] | 9.56
3 | AGTATACGCAGACACACACACACATATATATATATA [CACACA_site1735] | 10.8
4 | TATGTGAATCCTAAGTGTACACATCTTACATATATA [XGTACX_site2506] | 9.8
5 | GTTGAACATAGATGCACACACATAAAATAAAAAAAA [CACACA_site5353] | 10.1
6 | ACATATATATATAAATATATATATATATAAATATAT [CACACA_negctrl_site895] | 9.7
7 | TGTTTAAATTTTTTGTTTTTTTTTTTATAAAGCAAA [TGCATGCA_negctrl_site313] | 9.25
8 | TGAAGGTCAGTTCACAGTACCCAGTAACTCTACGGA [XGTACX_site2554] | 9.42
9 | TATATTTTTTTAAAAAGTACTTTGTATATATATATA [XGTACX_site1300] | 9.57
10 | TTGTTGTTATTTAAAACACACATCAATCATCTTAAC [CACACA_site1142] | 9.72
11 | TTAAATTAAAACAAATGTACAAAGTGCATATTTTTT [XGTACX_site8143] | 9.43
12 | ATTTTTTTTTCTTTCGCACACGTGAAAGAATTTCTA [CACACA_site2052] | 9.9
13 | ATATTATATTATATAACACACATTTTTCATAACACT [CACACA_site407] | 9.91
14 | ATAATTTAATACTAGTGTACAGAAAAAAAAAAAAAA [XGTACX_site6756] | 9.59
15 | TTACGCATACTAATTACACACAAATAGATGAATATA [CACACA_site1338] | 9.69
16 | ATAAAAAAATAAATTAGTACATATATATATATATAT [XGTACX_site6971] | 9.55
17 | TATTGTTATGTCGTTATTAACTTTCTTTAATTAATT [CACACA_negctrl_site174] | 9.7
18 | AAATATTCATAGTATACACACATTTATATATAATCA [CACACA_site771] | 9.76
19 | TGAAAGTTCAATAATTGTACATGTGGAAATTCATAC [XGTACX_site1378] | 9.69
20 | AAAATTATAAATCTTGCACACAAAAAAAATAATAAA [CACACA_site8771] | 9.83
21 | TTTTCATTTATGTATATATTTATTTTGATTTAATGT [GTGCAC_negctrl_site607] | 9.66
22 | AATTATTTTATGTGAGGTACACCACACATGAAGGGG [XGTACX_site8450] | 9.59

Row | Sequence | gcPBM binding intensity (ln)
23 | TAAATATATTCAATCACACACATTCGTTTTTTTTTT [CACACA_site234] | 9.97
24 | TATATATATTTAAGGTGTACATAAATAACAAAATAT [XGTACX_site2641] | 9.74
25 | AAGTGTATACAGAAGAGTACAAACAATTTTTTTCTT [XGTACX_site7387] | 9.79
26 | AAAAAACACAGACACACACACATATACATACATACA [CACACA_site2666] | 10.7
27 | ATATTTCGTCTAAAAAGTACACAACAATAAAAAGTA [XGTACX_site6668] | 9.63
28 | TTTTTTAAATAATATTGTACAAAAAATGTATAAATA [XGTACX_site3010] | 9.42
29 | TTAGGTTTATACACTACACACATTATTCATAAAAAA [CACACA_site871] | 9.83
30 | TACAAGCCCAATTCAAGTACATATATATATATATAT [XGTACX_site5569] | 9.54
31 | AGTTTGTCAATCAACACACACCTATTTATTATATAT [CACACA_site6030] | 9.93
32 | TATTTATGTATATGCTGTACGCATTTGTGAAACATA [XGTACX_site4688] | 9.58
33 | AACCAATTAGAAGGATCCAGAACTTATTTGTTTTTA [CACACA_negctrl_site1744] | 9.47
34 | TAAACTTTCCAGTGTTGTACATAATAATTATTATAT [XGTACX_site8896] | 9.69
35 | AAAGATATGAAATATACACACTTCTTTGGTATTATT [CACACA_site6352] | 9.76
36 | ATTCATTCATATGTTACACACACACGCCCACATAAA [CACACA_site7513] | 10.6
37 | TTATATATATATATATATATTTACATAATAATATGT [GTGCAC_negctrl_site388] | 9.64
38 | TAAAAAAAGGTTATTGGTACACACATATGTATATAT [XGTACX_site1029] | 9.96
39 | TAATATTCAATTATACGTACACATATATATATATAT [XGTACX_site4245] | 9.97
40 | TATGAAAGAAATAGTACACACATAAACATTTGTAAA [CACACA_site2783] | 10.1
41 | GTTGCGTATATATACACACATACATATATATATATA [CACACA_site1607] | 9.76
42 | TTATATAATAAAAATTGTACATATTATATATATATT [XGTACX_site3427] | 9.58
43 | GTTTGATTAAACTTGACACACATATATATAAATATA [CACACA_site1784] | 9.65
44 | AAAAAAAAAAAAGAAACACACATATATATATATATA [CACACA_site140] | 9.68

Row | Sequence | gcPBM binding intensity (ln)
45 | AGAAAATATACAAAACGTACTTATATATTATATCTA [XGTACX_site3104] | 9.61
46 | GTTAGAGGGAAAAAGAGTACATATATGTGGATAATT [XGTACX_site2064] | 9.67
47 | TCATATATCATAACAGTGCAAAAAAAAAAAAATTAT | 9.64
48 | ACTTTACAATATATATGTACATATTAATAAACATAT [XGTACX_site3689] | 9.79
49 | GAGTTTTTTTAATGATGTACATTTTAAAAATAAACG [XGTACX_site1036] | 9.29
50 | AAAATAATATATGTATGTACATATACACATATAGAA [XGTACX_site2218] | 9.86
51 | AAATGTTATAACTCTTGAAAAAACAAAATATCATCA [CACACA_negctrl_site1156] | 9.55
52 | AAATATAAACGGCACACACACAAAAAAAGAAAAAAA [CACACA_site649] | 11
53 | AGAAACCTTGTTAGTTAGCATATATATATATATATA [CACACA_negctrl_site372] | 9.57
54 | TATTTTATACATATTTTACACACTAATATATACATA [CACACA_site7998] | 9.78
55 | TTTATTATACAAAATTGTACTTTATAATTTTATGTA [XGTACX_site5846] | 9.57
56 | AAATATTACGGAATAAAGAGCTTTTAAATAATTTTA [CACACA_negctrl_site1700] | 9.53
57 | ATACAAAATTTTTAAGAACACACAAAAATGTACTAT [CACACA_site8817] | 9.74
58 | TGAGGTAACTAAATATGTACGTAACGAAGATACATA [XGTACX_site8231] | 9.72
59 | TTTATAAAAATGAACACACACATATATATATATATA [CACACA_site3493] | 9.86
60 | AAATATTTATAGGTTTGTACTTATAAATAAAAAAAA [XGTACX_site7360] | 9.5
61 | AATATGAAAAGATGAACAACAAAATGGAGAACAATA [GTGCAC_negctrl_site612] | 9.97
62 | TACTTACACTGTTTTTGTACTTATTTCCCTTTTATT [XGTACX_site2158] | 9.96
63 | AATCACAAATAAAATAATATGACACAATATAAAATA [CACACA_negctrl_site537] | 9.76
64 | TTCTTGTATTTTCATAGTACATATAATGTCGTATTA [XGTACX_site600] | 9.82
65 | TAATTTCTTATGTATTGTACAAATAATGTATGATAT [XGTACX_site270] | 9.47
66 | GCGTTATTAAATAATTCACACACATATATATATATA [CACACA_site8711] | 10.1

Row | Sequence | gcPBM binding intensity (ln)
67 | GAACGCCATTCACATAAAGGGATACATAAATAAATA [XGTACX_negctrl_site330] | 9.49
68 | AAGAAAAACTTTACGTGTACCAAACGTCATGCCAAC [XGTACX_site2575] | 9.58
69 | ATGAAAAAATTTATATGTACTTAAAATATAATCATA [XGTACX_site1228] | 9.33
70 | TATATTATTAAGATATGTACATAATTATAAATTTAA [XGTACX_site6848] | 9.45
71 | ATAAATAAAGGACACACACACACACTAGAAAAAAAA [CACACA_site5450] | 11.1
72 | AAAATAAAATTAGTTGCATGCAACTTAAACAGAAAT [TGCATGCA_site860] | 10.1
73 | TTGTGCTTGATATCACGGACAAGCTCATATTATATA [XGTACX_site4553] | 9.44
74 | AACAAATACAGACACACACACACACTAATAAAAAAA [CACACA_site8067] | 11.6
75 | GATATATATTAATATACACACACACCGATATATATA [CACACA_site8462] | 10.2
76 | TATTTTTATATTTTTGCACACATTCTTTACTCTTCA [CACACA_site2211] | 10.2
77 | AAAAATTTTATATTCACACACATATATATATATATA [CACACA_site624] | 9.98
78 | TTTATATTTTATAAATTATTCATAAATATATTTGTA [TGCATGCA_negctrl_site175] | 9.33
79 | TTTTGAAACATATGATGTACACGAACATTTAAAAAA [XGTACX_site474] | 9.56
80 | AAATTCCACCAACACACACACATATAAATAAATAAA [CACACA_site1233] | 11
81 | AATAAATAGATAAGCACACAAGCATATAGACATATA [CACACA_site222] | 10.1
82 | TATAAATAAAAACACACACACACATATATATATATA [CACACA_site2268] | 10.7
83 | CTCTATAAATGCTGCACACACATTTAATTATTTAAG [CACACA_site2582] | 9.9
84 | TATAAATATAAATATACACACATATTTATATTTATA [CACACA_site7053] | 9.69
85 | AAATGAAATACATCCTGTACATAGTAATGCTAACAA [XGTACX_site6600] | 9.73
86 | TTTTACAATGAAAGGTGTACAAGTAACAGTAGAACA [XGTACX_site1528] | 9.83
87 | ATAAAAGATATTTTTACACACTTTTGATGAGATCGT [CACACA_site3053] | 9.71
88 | ATACCAACATATTATACACACCTTTATATTTTTTTT [CACACA_site5217] | 10.1
